Measured values published in the supplement of paper PMC8948288.
The sequences are guide strands of siRNAs; only the seed at positions 2 to 7 varies.

Columns and labels:
H4 = test: cell viability relative to siNT1 (ATP content); H4 human neuroglioma and GL261 mouse glioma; higher = less toxic; conditions: siRNA concentration 10 nM; 96 h; human
Experimental: (§1)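 Arrayed screen of all 4096 6mer seeds. Each seed sits at guide-strand positions 2-7 of a neutral 19mer siRNA backbone (siNT1-based, passenger strand 2'-O-methyl modified at positions 1-2 to block RISC loading, 3' DNA overhangs). The guide strand is built here as U + seed + ACAUGUAAACCA. Cells were reverse transfected in triplicate in 384-well plates (H4 at 10 nM, GL261 at 25 nM) with Lipofectamine RNAiMAX. Viability was read as ATP content (CellTiter-Glo) 96 h after transfection and normalised to siNT1 (%).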

GL261 = test: as above; conditions: siRNA concentration 25 nM; 96 h; mouse
Experimental: as §1
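Also: cells reverse transfected with siRNA duplexes via lipid reagent, ATP read by luminescence, triplicate wells, values scaled to mean viability with non-targeting control siNT1.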

| Sequence | cell viability (H4) [%] | cell viability (GL261) [%] |
| --- | --- | --- |
| UAGAGUGACAUGUAAACCA | 80.8 | 34.8 |
| UAGAGUUACAUGUAAACCA | 85.1 | 30.2 |
| UAGAUAAACAUGUAAACCA | 85.8 | 52 |
| UAGAUACACAUGUAAACCA | 82 | 30.2 |
| UAGAUAGACAUGUAAACCA | 105 | 50.8 |
| UAGAUAUACAUGUAAACCA | 114 | 48.9 |
| UAGAUCAACAUGUAAACCA | 85.9 | 50.4 |
| UAGAUCCACAUGUAAACCA | 73.2 | 19.2 |
| UAGAUCGACAUGUAAACCA | 94.7 | 56.8 |
| UAGAUCUACAUGUAAACCA | 71.1 | 34.2 |
| UAGAUGAACAUGUAAACCA | 97.4 | 54.2 |
| UAGAUGCACAUGUAAACCA | 43 | 20.1 |
| UAGAUGGACAUGUAAACCA | 59 | 42.7 |
| UAGAUGUACAUGUAAACCA | 88.4 | 28.2 |
| UAGAUUAACAUGUAAACCA | 93 | 63.8 |
| UAGAUUCACAUGUAAACCA | 71.4 | 54.7 |
| UAGAUUGACAUGUAAACCA | 90 | 67.6 |
| UAGAUUUACAUGUAAACCA | 116 | 65.3 |
| UAGCAAAACAUGUAAACCA | 115 | 68.7 |
| UAGCAACACAUGUAAACCA | 104 | 50.6 |
| UAGCAAGACAUGUAAACCA | 74.9 | 73.4 |
| UAGCAAUACAUGUAAACCA | 99.2 | 52.8 |
| UAGCACAACAUGUAAACCA | 87.2 | 41.2 |

| Sequence | cell viability (H4) [%] | cell viability (GL261) [%] |
| --- | --- | --- |
| UAGCACCACAUGUAAACCA | 68.7 | 44.9 |
| UAGCACGACAUGUAAACCA | 102 | 53.6 |
| UAGCACUACAUGUAAACCA | 83.1 | 26.8 |
| UAGCAGAACAUGUAAACCA | 95 | 63.7 |
| UAGCAGCACAUGUAAACCA | 14.4 | 21.2 |
| UAGCAGGACAUGUAAACCA | 46.6 | 35.3 |
| UAGCAGUACAUGUAAACCA | 49.4 | 33.1 |
| UAGCAUAACAUGUAAACCA | 95.3 | 59.2 |
| UAGCAUCACAUGUAAACCA | 86 | 43.3 |
| UAGCAUGACAUGUAAACCA | 106 | 36.9 |
| UAGCAUUACAUGUAAACCA | 92.6 | 51.1 |
| UAGCCAAACAUGUAAACCA | 88.1 | 63.8 |
| UAGCCACACAUGUAAACCA | 75.9 | 37 |
| UAGCCAGACAUGUAAACCA | 67.4 | 42.7 |
| UAGCCAUACAUGUAAACCA | 70 | 45.6 |
| UAGCCCAACAUGUAAACCA | 71.8 | 52.8 |
| UAGCCCCACAUGUAAACCA | 101 | 35.6 |
| UAGCCCGACAUGUAAACCA | 85.6 | 52.2 |
| UAGCCCUACAUGUAAACCA | 94.3 | 22.2 |
| UAGCCGAACAUGUAAACCA | 72.4 | 68.4 |
| UAGCCGCACAUGUAAACCA | 35.2 | 17.8 |
| UAGCCGGACAUGUAAACCA | 48.4 | 53.8 |
| UAGCCGUACAUGUAAACCA | 63.6 | 60.7 |

| Sequence | cell viability (H4) [%] | cell viability (GL261) [%] |
| --- | --- | --- |
| UAGCCUAACAUGUAAACCA | 93.5 | 79.2 |
| UAGCCUCACAUGUAAACCA | 26.2 | 46.8 |
| UAGCCUGACAUGUAAACCA | 69.2 | 57.6 |
| UAGCCUUACAUGUAAACCA | 41.8 | 44.3 |
| UAGCGAAACAUGUAAACCA | 107 | 61 |
| UAGCGACACAUGUAAACCA | 86 | 42.3 |
| UAGCGAGACAUGUAAACCA | 87.4 | 65.5 |
| UAGCGAUACAUGUAAACCA | 77.1 | 62.5 |
| UAGCGCAACAUGUAAACCA | 93.4 | 61.3 |
| UAGCGCCACAUGUAAACCA | 66.2 | 64.3 |
| UAGCGCGACAUGUAAACCA | 99.7 | 48.1 |
| UAGCGCUACAUGUAAACCA | 95.5 | 67.5 |
| UAGCGGAACAUGUAAACCA | 84.7 | 48.3 |
| UAGCGGCACAUGUAAACCA | 24.1 | 11 |
| UAGCGGGACAUGUAAACCA | 36.5 | 47.4 |
| UAGCGGUACAUGUAAACCA | 33.9 | 53.2 |
| UAGCGUAACAUGUAAACCA | 113 | 69.8 |
| UAGCGUCACAUGUAAACCA | 77.4 | 56.5 |
| UAGCGUGACAUGUAAACCA | 100 | 64.6 |
| UAGCGUUACAUGUAAACCA | 114 | 68.6 |
| UAGCUAAACAUGUAAACCA | 91.8 | 64.3 |
| UAGCUACACAUGUAAACCA | 66.7 | 42.9 |
| UAGCUAGACAUGUAAACCA | 60.5 | 43.2 |

| Sequence | cell viability (H4) [%] | cell viability (GL261) [%] |
| --- | --- | --- |
| UAGCUAUACAUGUAAACCA | 70.8 | 57.5 |
| UAGCUCAACAUGUAAACCA | 88 | 51.6 |
| UAGCUCCACAUGUAAACCA | 34 | 17.4 |
| UAGCUCGACAUGUAAACCA | 91.6 | 46.5 |
| UAGCUCUACAUGUAAACCA | 43 | 18.4 |
| UAGCUGAACAUGUAAACCA | 105 | 49.9 |
| UAGCUGCACAUGUAAACCA | 31.6 | 18.6 |
| UAGCUGGACAUGUAAACCA | 9.26 | 26.9 |
| UAGCUGUACAUGUAAACCA | 67 | 37.2 |
| UAGCUUAACAUGUAAACCA | 86.7 | 66.7 |
| UAGCUUCACAUGUAAACCA | 63.7 | 21.7 |
| UAGCUUGACAUGUAAACCA | 67.1 | 44.5 |
| UAGCUUUACAUGUAAACCA | 107 | 37.2 |
| UAGGAAAACAUGUAAACCA | 83.7 | 61.7 |
| UAGGAACACAUGUAAACCA | 80.7 | 40.2 |
| UAGGAAGACAUGUAAACCA | 95.2 | 64.2 |
| UAGGAAUACAUGUAAACCA | 98.7 | 60.7 |
| UAGGACAACAUGUAAACCA | 79.8 | 59.8 |
| UAGGACCACAUGUAAACCA | 70.9 | 34.2 |
| UAGGACGACAUGUAAACCA | 69.5 | 52.1 |
| UAGGACUACAUGUAAACCA | 76.7 | 20.4 |
| UAGGAGAACAUGUAAACCA | 78.9 | 54.1 |
| UAGGAGCACAUGUAAACCA | 8.15 | 30.3 |

| Sequence | cell viability (H4) [%] | cell viability (GL261) [%] |
| --- | --- | --- |
| UAGGAGGACAUGUAAACCA | 50 | 15 |
| UAGGAGUACAUGUAAACCA | 37.9 | 42.5 |
| UAGGAUAACAUGUAAACCA | 96.4 | 69.2 |
| UAGGAUCACAUGUAAACCA | 45.3 | 40.1 |
| UAGGAUGACAUGUAAACCA | 102 | 75.6 |
| UAGGAUUACAUGUAAACCA | 80.3 | 65.6 |
| UAGGCAAACAUGUAAACCA | 67.9 | 33.9 |
| UAGGCACACAUGUAAACCA | 40 | 22.8 |
| UAGGCAGACAUGUAAACCA | 47 | 19.7 |
| UAGGCAUACAUGUAAACCA | 57.2 | 24 |
| UAGGCCAACAUGUAAACCA | 50.1 | 31.3 |
| UAGGCCCACAUGUAAACCA | 51 | 22.6 |
| UAGGCCGACAUGUAAACCA | 82.9 | 54.3 |
| UAGGCCUACAUGUAAACCA | 36.5 | 37.5 |
| UAGGCGAACAUGUAAACCA | 90.5 | 54.4 |
| UAGGCGCACAUGUAAACCA | 37.4 | 20 |
| UAGGCGGACAUGUAAACCA | 58.8 | 28.5 |
| UAGGCGUACAUGUAAACCA | 69.8 | 37 |
| UAGGCUAACAUGUAAACCA | 95.6 | 52.9 |
| UAGGCUCACAUGUAAACCA | 46.5 | 16.3 |
| UAGGCUGACAUGUAAACCA | 75.7 | 38.4 |
